Measurements from PubChem BioAssay (NCATS).
Values joined by “and” are separate entries in the source; they are usually repeats but may differ in a detail not shown here. Identical values can stand only once. The inconclusive results got no clear call from the source; some entries with a clear call stand among them for comparison. For some assays here: Where the call is inconclusive, the potency comes from a doubtful curve fit. Active and inactive are the calls of the source. Calls follow the shape of the dose curve; as a rule, active = well fitted curve in the direction sought with a large enough effect; inconclusive = small, poorly fitted or top-dose-only effect, or another doubt; inactive = no such curve, though single readings can be large; an effect the other way counts as inactive or inconclusive.

Assays:
[1] = biological target: Cytochrome P450 3A7 (Homo sapiens) (UniProt P24462); assay: Cytochrome P450 family 3 subfamily A member 7 (CYP3A7) small molecule antagonists: luciferase biochemical qHTS assay (AID 1963596); settings: P450-Glo CYP3A7 enzyme luminescence, 1 h; series mostly up to 57.4 µM; also: nearly all actives have a fitted effect of over 40% in size; also: potency is read from the fitted curve at half-maximal effect; as to activity change, negative = inhibition: % is scaled to controls: 0 for no effect and ±100 for the full control effect
Method in brief: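 Recombinant CYP3A7 P450-Glo luminescent assay: enzyme-proluciferin substrate mix preincubated with compound 10 min at room temperature, reaction started with NADPH regeneration system for 1 h. Luciferin detected by luminescence; ketoconazole as positive control.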

[2] = Viability qHTS for spleen associated tyrosine kinase inhibitor (SYKi) naive MV4-11 cells (AID 1963823); settings: MV4-11 AML viability, CellTiter-Glo luminescence, 72 h; viability (% of control): at 45 µM (top of the series); also: nearly all actives have a fitted effect of over 40% in size; also: potency is read from the fitted curve at half-maximal effect
Method in brief: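 Viability of MV4-11 AML cells lacking prior SYK inhibitor exposure is scored by CellTiter-Glo luminescence following 72 hr compound incubation at 37 C, 5% CO2, seeded at 500 cells per well.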

[3] = Viability qHTS for spleen associated tyrosine kinase inhibitor (SYKi) drug resistant MV4-11 cells (AID 1963824); settings: SYKi-resistant MV4-11 viability, CellTiter-Glo, 72 h; series mostly up to 45 µM; also: nearly all actives have a fitted effect of over 35% in size; also: potency is read from the fitted curve at half-maximal effect
Method in brief: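 CellTiter-Glo luminescence, read 10 min after reagent addition, reports viability after a 72 hr compound exposure. Cells are an MV4-11 line made resistant to SYK inhibition, seeded at 500 per well onto compound-containing plates.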

[4] = Quantitative highthroughput screen to assess conditional lethalithy of NOMO1 cells grown in RPMI1640 with untreated serum (RPMI+s) (AID 1963876); settings: NOMO1 AML cells in RPMI+serum, CellTiter-Glo viability, 48 h; viability: at 45.8 µM (top of the series); also: nearly all actives have a fitted effect of over 35% in size; also: potency is read from the fitted curve at half-maximal effect;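 as to Viability: 100% = DMSO wells and 0% = empty wells without cells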
Method in brief: (§1)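 Each medium arm—HPLM with 10% dialyzed FBS, or RPMI1640 with 5 mM glucose and 10% untreated or dialyzed FBS—was screened against an 11-point, 3-fold compound titration for 48 h at 37 °C, with CellTiter-Glo luminescence as endpoint.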

[5] = Quantitative highthroughput screen to assess conditional lethalithy of P12 Ichikawa cells grown in RPMI1640 with untreated serum (RPMI+s) (AID 1963881); settings: ATP luminescence, 48 h; Potency: viability; series mostly up to 45.8 µM; also: nearly all actives have a fitted effect of over 35% in size; also: potency is read from the fitted curve at half-maximal effect;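 as to Viability: 100% = DMSO wells and 0% = empty wells without cells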
Method in brief: as §1

[6] = Quantitative highthroughput screen to assess conditional lethalithy of SEM cells grown in RPMI1640 with unreated serum (RPMI+s) (AID 1963883); settings: SEM B-ALL cells, CellTiter-Glo viability, 48 h; viability: at 45.8 µM (top of the series); also: nearly all actives have a fitted effect of over 35% in size; also: potency is read from the fitted curve at half-maximal effect;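 as to Viability: 100% = DMSO wells and 0% = empty wells without cells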
Method in brief: as §1

[7] = Quantitative highthroughput screen to assess conditional lethalithy of SEM cells grown in RPMI1640 with dialyzed fetal bovine serum (RPMI+ds) (AID 1963884); settings: SEM B-ALL cells, RPMI+dialyzed FBS, CellTiter-Glo viability, 48 h; viability: at 45.8 µM (top of the series); also: nearly all actives have a fitted effect of over 35% in size; also: potency is read from the fitted curve at half-maximal effect;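 as to Viability: 100% = DMSO control wells and 0% = empty wells without cells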
Method in brief: as §1

[8] = Cellular viability qHTS for adrenocortical cancer (ACC) cell line NCI-H295R (AID 1963990); settings: CellTiter-Glo ATP luminescence, 48 h; activity change, negative = viability loss: at 46.1 µM (top of the series); also: nearly all actives have a fitted effect of over 60% in size; also: potency is read from the fitted curve at half-maximal effect;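 as to activity change, negative = viability loss: 0% = DMSO only wells and -100% = full killing with cytotoxic reference compound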
Method in brief: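 CellTiter-Glo ATP luminescence, read 48 h after compound addition, measured viability of NCI-H295R adrenocortical cells grown serum-free with ITS. Final concentrations spanned up to 46 uM. Data normalized to DMSO and doxorubicin, fitted for IC50 and maximal response.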

[9] = Quantitative highthroughput screen to assess conditional lethalithy of NOMO1 cells grown in RPMI1640 with dialyzed fetal bovine serum (RPMI+ds) (AID 1963877); settings: NOMO1 in RPMI+dialyzed FBS viability, ATP luminescence, 48 h; series mostly up to 45.8 µM; also: nearly all actives have a fitted effect of over 30% in size; also: potency is read from the fitted curve at half-maximal effect;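 as to Viability: 100% = DMSO control wells and 0% = empty wells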
Method in brief: as §1

[10] = Quantitative highthroughput screen to assess conditional lethalithy of NOMO1 cells grown in Human Plasma-Like Medium with dialyzed fetal bovine serum (HPLM+ds) (AID 1963878); settings: NOMO1 AML cells in HPLM+ds, CellTiter-Glo viability, 48 h; viability: at 45.8 µM (top of the series); also: nearly all actives have a fitted effect of over 35% in size; also: potency is read from the fitted curve at half-maximal effect;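 as to Viability: 100% = DMSO wells and 0% = empty wells on each plate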
Method in brief: as §1

[11] = Quantitative highthroughput screen to assess conditional lethalithy of P12 Ichikawa cells grown in RPMI1640 with dialyzed fetal bovine serum (RPMI+ds) (AID 1963880); settings: ATP luminescence, 48 h; Potency: P12-Ichikawa viability; series mostly up to 45.8 µM; also: nearly all actives have a fitted effect of over 35% in size; also: potency is read from the fitted curve at half-maximal effect;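 as to Viability: 100% = DMSO wells and 0% = empty wells on each plate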
Method in brief: as §1

[12] = Quantitative highthroughput screen to assess conditional lethalithy of P12 Ichikawa cells grown in Human Plasma-Like Medium with dialyzed fetal bovine serum (HPLM+ds) (AID 1963879); settings: ATP luminescence, 48 h; Potency: viability; series mostly up to 45.8 µM; also: nearly all actives have a fitted effect of over 35% in size
Method in brief: as §1

[13] = Quantitative highthroughput screen to assess conditional lethalithy of SEM cells grown in Human Plasma-Like Medium with dialyzed fetal bovine serum (HPLM+ds) (AID 1963882); settings: SEM B-ALL cells in HPLM+ds, CellTiter-Glo viability, 48 h; series mostly up to 45.8 µM; also: nearly all actives have a fitted effect of over 35% in size; also: potency is read from the fitted curve at half-maximal effect
Method in brief: as §1
Tags tell the direction and shape of the fitted curve.

Sequence of UniProt P24462 (P24462 whole entry, looked up): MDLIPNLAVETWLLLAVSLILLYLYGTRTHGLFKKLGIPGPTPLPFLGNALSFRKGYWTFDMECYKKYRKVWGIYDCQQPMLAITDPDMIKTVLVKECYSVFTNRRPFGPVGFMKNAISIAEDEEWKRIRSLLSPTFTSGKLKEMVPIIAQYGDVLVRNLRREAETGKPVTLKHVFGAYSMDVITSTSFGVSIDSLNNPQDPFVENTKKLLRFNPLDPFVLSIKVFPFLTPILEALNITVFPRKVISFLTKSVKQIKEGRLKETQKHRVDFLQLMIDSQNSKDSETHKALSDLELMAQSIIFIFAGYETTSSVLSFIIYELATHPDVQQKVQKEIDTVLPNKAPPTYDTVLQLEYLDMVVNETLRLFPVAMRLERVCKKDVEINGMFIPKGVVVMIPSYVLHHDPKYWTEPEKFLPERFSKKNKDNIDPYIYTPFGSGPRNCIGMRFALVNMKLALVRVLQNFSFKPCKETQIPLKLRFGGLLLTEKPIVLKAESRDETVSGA

With `N[C@@H](C(=O)N[C@@H]1C(=O)N2C(C(=O)O)=C(Cl)CS[C@H]12)c1ccccc1` the activity change, negative = inhibition [1] was inactive: -8.83% [at 11.5 µM], the Potency [2] was inconclusive: 0.0273 µM [cytotoxic, partial curve, poor fit] and the Potency [3] was active: 0.686 µM. For the same molecule, the Potency [4] was “inactive”, the Potency [5] was “inactive” and the Potency [6] was “inactive”. The Potency [7] was “inactive” and the activity change, negative = viability loss [8] was inactive: -18.4% [at 9.17 µM].

In the case of `COc1ccc(-n2nc(C(N)=O)c3c2C(=O)N(c2ccc(N4CCCCC4=O)cc2)CC3)cc1`, the Potency [1] was inconclusive: 15.1 µM [inhibitor, partial curve], the Potency [2] was “inactive” and the Potency [3] was “inactive”. For the same molecule, the Potency [4] was active: 0.118 µM, the Potency [9] was active: 0.235 µM and the Potency [10] was inconclusive: 0.166 µM [cytotoxic, full curve]. The Potency [11] was active: 2.96 µM and the Potency [7] was “inactive”.

In the case of `NC(N)=NC(=O)c1nc(Cl)c(N)nc1N`, the Potency [1] was inconclusive: 0.617 µM [inhibitor, full curve], the Potency [2] was active: 5.39 µM and active: 841 nM and the Potency [3] was active: 12.1 µM and active: 668 nM. The Potency [9] was inconclusive: 1.48 µM [cytotoxic, full curve], the Potency [10] was inconclusive: 1.18 µM [cytotoxic, full curve] and the Potency [11] was active: 13.2 µM. For the same molecule, the Potency [8] was inconclusive: 50.1 µM [cytotoxic, single point] and the activity change, negative = viability loss [8] was inconclusive: -32.8% [cytotoxic].

For `CC(C)C1CCC(C(=O)N[C@H](Cc2ccccc2)C(=O)O)CC1` (stereo not given in full), the Potency [1] was inconclusive: 43.6 µM [inhibitor, partial curve, poor fit], the Potency [2] was inconclusive: 23.7 µM [cytotoxic, single point] and inactive and the Potency [3] was inconclusive: 26.6 µM [cytotoxic, single point]. The Potency [9] was “inactive”, the Potency [12] was “inactive” and the Potency [11] was “inactive”. The Potency [5] was “inactive”, the Potency [13] was “inactive” and the Potency [7] was “inactive”.

In the case of `CC(C)C[C@H](NC(=O)[C@H](Cc1ccccc1)NC(=O)c1cnccn1)B(O)O`, the Potency [1] was inconclusive: 12.3 µM [inhibitor, partial curve], the Potency [2] was inconclusive: 9.4 nM [cytotoxic, full curve] and inconclusive: 5.2 nM [cytotoxic, full curve] and the Potency [3] was active: 9.4 nM and inconclusive: 5.2 nM [cytotoxic, full curve] and active: 11.8 nM. The Potency [9] was active: 0.0469 µM, the Potency [10] was active: 0.0469 µM and the Potency [5] was active: 0.0372 µM. The Potency [13] was active: 0.0209 µM and the Potency [6] was active: 0.0187 µM.

In the case of `CN(C)CCN(Cc1ccc(Cl)cc1)c1ccccn1`, the Potency [1] was inconclusive: 27.5 µM [inhibitor, single point], the Potency [2] was inconclusive: 23.7 µM [cytotoxic, single point] and the Potency [3] was inconclusive: 26.6 µM [cytotoxic, single point]. For the same molecule, the Potency [10] was “inactive”, the Potency [12] was “inactive” and the Potency [5] was “inactive”.

In the case of `COC(=O)[C@H](CC1C=NC=N1)NCC12CC3CC(CC(C3)C1)C2` (stereo not given in full), the Potency [1] was “inactive”, the Potency [2] was “inactive” and the Potency [3] was “inactive”.

In the case of `O=C(COCC(=O)N1CCN(C(c2ccccc2)c2ccccc2)CC1)Nc1ccc(Cl)cc1C(=O)O`, the Potency [1] was “inactive”, the Potency [2] was inconclusive: 37.2 µM [cytotoxic, single point] and the Potency [3] was “inactive and inconclusive: 33.2 µM [cytotoxic, single point]”.

In the case of `CN(c1nccc(=O)[nH]1)C1CCN(c2nc3ccccc3n2Cc2ccc(F)cc2)CC1`, the Potency [1] was “inactive”, the Potency [2] was “inactive and inconclusive: 16.4 µM [cytotoxic, partial curve]” and the Potency [3] was inconclusive: 29.9 µM [cytotoxic, single point] and inconclusive: 29.1 µM [cytotoxic, single point]. For the same molecule, the Potency [4] was “inactive”, the Potency [9] was “inactive” and the Potency [10] was “inactive”. For the same molecule, the Potency [11] was “inactive”, the Potency [13] was inconclusive: 11.8 µM [cytotoxic, partial curve, poor fit] and the Potency [6] was “inactive”.

With `Cc1nnc(NS(=O)(=O)c2ccc(N)cc2)s1` the Potency [1] was “inactive”, the Potency [2] was inconclusive: 33.5 µM [cytotoxic, single point] and inactive and the Potency [3] was “inactive”. The Potency [10] was inconclusive: 0.0418 µM [cytotoxic, full curve, poor fit], the Potency [11] was active: 13.2 µM and the Potency [5] was active: 8.33 µM. The Potency [6] was active: 9.35 µM and the Potency [7] was “inactive”.

For `COc1cc2nc(N3CCN(C(=O)c4ccco4)CC3)nc(N)c2cc1OC`, the Potency [1] was inconclusive: 9.52 µM [inhibitor, partial curve, poor fit], the Potency [2] was inconclusive: 14.6 µM [cytotoxic, single point] and the Potency [3] was inconclusive: 16.4 µM [cytotoxic, single point]. For the same molecule, the Potency [4] was inconclusive: 37.2 µM [cytotoxic, single point], the Potency [9] was inconclusive: 33.2 µM [cytotoxic, single point] and the Potency [10] was active: 13.2 µM. The Potency [11] was inconclusive: 37.2 µM [cytotoxic, single point], the Potency [5] was inconclusive: 37.2 µM [cytotoxic, single point] and the Potency [13] was active: 9.35 µM. The Potency [7] was active: 7.43 µM.
